Data: the antibiotic and cytotoxicity screens of Wong et al. (2023)
Some of the results follow.

Each molecule was assayed on HSkMC (human skeletal muscle cells) (assay: cytotoxicity call (relative viability < 0.9)). Conditions: 10 µM.

Row | SMILES | cytotoxicity call
1 | COc1ccc(S(=O)(=O)Nc2ccc3c(c2)OC[C@@H](C)N(C)C[C@@H](C)[C@H](OC)CN(C)C3=O)cc1 | inactive
2 | CC(C)NC(=O)N(C)C[C@@H]1Oc2ccc(NC(=O)Cc3ccccc3)cc2CC(=O)N([C@@H](C)CO)C[C@H]1C | inactive
3 | C[C@H]1CN([C@@H](C)CO)C(=O)c2c(c3ccccc3n2C)-c2ccccc2CO[C@H]1CN(C)S(C)(=O)=O | inactive
4 | C[C@H](CO)N1C[C@H](C)[C@@H](CN(C)S(=O)(=O)c2ccc(F)cc2)Oc2c(NC(=O)c3cnccn3)cccc2C1=O | inactive
5 | C[C@@H]1CN([C@@H](C)CO)C(=O)Cc2cc(NC(=O)Cc3cn(C)c4ccccc34)ccc2O[C@H]1CN(C)S(C)(=O)=O | inactive
6 | C[C@@H]1CCCCO[C@H](CN(C)S(=O)(=O)c2ccc(Cl)cc2)[C@H](C)CN([C@H](C)CO)C(=O)c2cc(NC(=O)c3ccncc3)ccc2O1 | inactive
7 | C[C@H]1CCN=C(N)S1 | inactive
8 | CC(=O)NCCCC[C@@H]1NC(=O)[C@@H]2C[C@H](C(=O)NCCCCCN)[C@H](c3ccc(O)cc3)N2C1=O | inactive
9 | NCc1nncn1-c1ccc(F)cc1 | inactive
10 | CCCc1cc(C)[nH]c(=O)c1CNC(=O)c1cc(-c2ccc(N3CCN(C(C)C)CC3)nc2)cc2c1cnn2C(C)C | inactive

These molecules were tested on HepG2 (assay: cytotoxicity call (relative viability < 0.9)). Conditions: 10 µM.

Row | SMILES | cytotoxicity call
11 | C[C@@H]1CCCCO[C@H](CN(C)C(=O)NC2CCCCC2)[C@@H](C)CN([C@H](C)CO)C(=O)c2cc(NS(=O)(=O)c3ccc(Cl)cc3)ccc2O1 | inactive
12 | O=C(NCc1ccccc1)C1=C[C@@H](c2ccc(Br)cc2)C[C@@H](OCc2ccc(CO)cc2)O1 | inactive
13 | C=CCOC(=O)[C@H]1[C@@H]2C(=O)O[C@@H](c3ccccc3)[C@@H](c3ccccc3)N2[C@@H](c2ccc(OCCOC(=O)[C@H]3C[C@H]4C(=O)N[C@@H](Cc5ccccc5)C(=O)N4[C@H]3c3cccc(OCCO)c3)cc2)[C@]12C(=O)Nc1ccccc12 | inactive
14 | C[C@@H]1CN([C@@H](C)CO)C(=O)Cc2cc(NS(=O)(=O)c3ccc(Cl)cc3)ccc2O[C@H]1CN(C)Cc1ccc(C(=O)Nc2ccccc2N)cc1 | inactive
15 | N[C@@H](CCO)c1cccc(Cl)c1 | inactive
16 | O=C(C[C@@H]1C[C@@H]2c3cc(NC(=O)Cc4ccncc4)ccc3O[C@@H]2[C@@H](CO)O1)NCCc1ccccc1 | inactive
17 | COc1ccc(NC(=O)Nc2cccc3c2O[C@H](CN(C)Cc2ccc(C(F)(F)F)cc2)[C@@H](C)CN([C@@H](C)CO)C3=O)cc1 | inactive
18 | C[C@H](CO)N1C[C@H](C)[C@H](CN(C)C(=O)Nc2ccc3c(c2)OCO3)OCCCC[C@H](C)Oc2ccc(NC(=O)Nc3ccccc3)cc2C1=O | inactive
19 | CC(O)(CN)C1CC1 (stereo not given) | inactive
20 | COc1ccc(CN(C)C[C@H]2OCCCC[C@@H](C)Oc3ccc(NC(=O)C4CCCCC4)cc3C(=O)N([C@@H](C)CO)C[C@@H]2C)cc1 | inactive
21 | C[C@@H]1CN([C@H](C)CO)C(=O)Cc2cc(NC(=O)Cn3cnnn3)ccc2O[C@@H]1CN(C)C(=O)Nc1ccccc1 | inactive
22 | C[C@H](CO)N1C[C@H](C)[C@H](CN(C)Cc2cccc(C(F)(F)F)c2)Oc2ncc(-c3cccc(F)c3)cc2C1=O | active
23 | COc1ccc(cc1)S(=O)(=O)N1C[C@]2(C1)CN([C@H](CO)c1c2c2ccc(cc2n1C)OC)C(=O)c1cccnc1 | inactive
24 | C[C@@H]1CN([C@H](C)CO)C(=O)c2cc(C#CCN(C)C)cnc2O[C@H]1CN(C)C(=O)c1ccc2c(c1)OCO2 | inactive
25 | COc1ccc(S(=O)(=O)N(C)C[C@@H]2Oc3ccc(NC(=O)c4ccncc4)cc3C(=O)N([C@@H](C)CO)C[C@H]2C)cc1 | inactive
26 | COc1ccc(NC(=O)N(C)C[C@H]2Oc3ccc(NS(=O)(=O)c4c(C)noc4C)cc3CC(=O)N([C@@H](C)CO)C[C@@H]2C)cc1 | inactive
27 | N#Cc1cn(C2CCCCC2)c(=O)[nH]c1=O | inactive
28 | Cc1ccc(S(=O)(=O)N(C)C[C@H]2Oc3ccc(NC(=O)NC(C)C)cc3CC(=O)N([C@@H](C)CO)C[C@@H]2C)cc1 | inactive
29 | C#Cc1ccc(C(=O)NO)cc1 | inactive
30 | C[C@@H]1CN([C@@H](C)CO)C(=O)c2cc(NC(=O)Cc3ccccc3)ccc2O[C@@H](C)CCCCO[C@@H]1CN(C)C(=O)CCC(F)(F)F | inactive

Row | SMILES | cytotoxicity call
31 | C/C=C/c1ccc2c(c1)O[C@@H](CN(C)Cc1ccc(C(=O)O)cc1)[C@H](C)CN([C@@H](C)CO)S2(=O)=O | inactive
32 | C[C@@H](CN1CCCCC1)C(=O)NN | inactive
33 | C[C@@H]1CN([C@@H](C)CO)C(=O)c2cc(NC(=O)NC3CCCCC3)ccc2O[C@@H]1CN(C)Cc1ccc(Cl)c(Cl)c1 | inactive
34 | C[C@H](CO)N1C[C@H](C)[C@@H](CN(C)C(=O)Nc2cccc3ccccc23)Oc2ccc(NC(=O)Cc3cn(C)c4ccccc34)cc2C1=O | inactive
35 | COc1cccc(NC(=O)N(C)C[C@@H]2Oc3ncc(C#Cc4cccnc4)cc3C(=O)N([C@H](C)CO)C[C@@H]2C)c1 | inactive
36 | Cc1noc(C)c1S(=O)(=O)Nc1ccc2c(c1)CC(=O)N([C@H](C)CO)C[C@H](C)[C@H](CN(C)S(=O)(=O)c1ccc(F)cc1)O2 | inactive
37 | C[C@H]1CN([C@@H](C)CO)S(=O)(=O)c2ccc(-c3cncnc3)cc2O[C@@H]1CN(C)C(=O)c1cccc(F)c1 | inactive
38 | COc1ccc(CN(C)C[C@H]2Oc3ccc(NC(=O)C4CC4)cc3CC(=O)N([C@@H](C)CO)C[C@H]2C)cc1 | inactive
39 | Cc1ccc(S(=O)(=O)Nc2cccc3c2O[C@@H](CN(C)S(=O)(=O)c2cccs2)[C@@H](C)CN([C@@H](C)CO)C3=O)cc1 | inactive
40 | CC(C)NC(=O)Nc1ccc2c(c1)C(=O)N([C@@H](C)CO)C[C@@H](C)[C@@H](CN(C)S(=O)(=O)c1cccs1)O2 | inactive
41 | COc1ccc(S(=O)(=O)Nc2ccc3c(c2)OC[C@@H](C)N(C)C[C@@H](C)[C@H](OC)CN(C)C3=O)cc1 | inactive
42 | CC(C)NC(=O)N(C)C[C@@H]1Oc2ccc(NC(=O)Cc3ccccc3)cc2CC(=O)N([C@@H](C)CO)C[C@H]1C | inactive
43 | C[C@H]1CN([C@@H](C)CO)C(=O)c2c(c3ccccc3n2C)-c2ccccc2CO[C@H]1CN(C)S(C)(=O)=O | inactive
44 | C[C@H](CO)N1C[C@H](C)[C@@H](CN(C)S(=O)(=O)c2ccc(F)cc2)Oc2c(NC(=O)c3cnccn3)cccc2C1=O | inactive
45 | C[C@@H]1CN([C@@H](C)CO)C(=O)Cc2cc(NC(=O)Cc3cn(C)c4ccccc34)ccc2O[C@H]1CN(C)S(C)(=O)=O | inactive
46 | C[C@@H]1CCCCO[C@H](CN(C)S(=O)(=O)c2ccc(Cl)cc2)[C@H](C)CN([C@H](C)CO)C(=O)c2cc(NC(=O)c3ccncc3)ccc2O1 | inactive
47 | C[C@H]1CCN=C(N)S1 | inactive
48 | CC(=O)NCCCC[C@@H]1NC(=O)[C@@H]2C[C@H](C(=O)NCCCCCN)[C@H](c3ccc(O)cc3)N2C1=O | inactive
49 | NCc1nncn1-c1ccc(F)cc1 | inactive
50 | CCCc1cc(C)[nH]c(=O)c1CNC(=O)c1cc(-c2ccc(N3CCN(C(C)C)CC3)nc2)cc2c1cnn2C(C)C | active
